In the antibiotic and cytotoxicity screens of Wong et al. (2023) one finds growth inhibition call data, which are given here for 29 molecules.

The list shows a part of the results.

The assay concerns S. aureus RN4220. The assay is described as follows: growth inhibition call (relative growth <= 0.2). The conditions noted are these: 50 µM.
With `C[C@H](CO)N1C[C@H](C)[C@H](CN(C)S(=O)(=O)c2ccc(F)cc2)Oc2ncc(-c3ccccc3)cc2C1=O`, the growth inhibition call was “inactive”.

On to `CNC(=O)c1cccc(CN)c1`, for which the growth inhibition call is “inactive”.

Consider `C[C@@H]1CCCCO[C@H](CN(C)C)[C@H](C)CN([C@@H](C)CO)C(=O)c2cc(NS(=O)(=O)c3cn(C)cn3)ccc2O1`, for which the growth inhibition call was “inactive”.

With `COC(=O)c1c(C(=O)OC)c2n(c(=O)c1-c1ccccc1)[C@@H]1c3ccccc3O[C@@](COCc3ccc(OC)cc3)([C@@H]1COC(=O)c1ccccc1)N2C`, the growth inhibition call is “inactive”.

With `NCCNC1=NS(=O)(=O)c2ccccc21`, the growth inhibition call was “inactive”.

On to `C[C@H]1CN([C@@H](C)CO)C(=O)c2cc(NS(=O)(=O)c3ccccc3)ccc2O[C@@H]1CN(C)S(C)(=O)=O`, for which the growth inhibition call is “inactive”.

For `CC(C)CC(N)=O`, the growth inhibition call was “inactive”.

As for `COCC(=O)N1CC[C@]2(CC(C(=O)NCc3cnc(C)cn3)=NO2)C1`, the growth inhibition call was “inactive”.

For the molecule `O=c1[nH]cc(F)c(=O)[nH]1`, the growth inhibition call is “inactive”.

Turning to `C[C@@H]1CCCCO[C@H](CN(C)C(=O)Nc2ccc(C(F)(F)F)cc2)[C@@H](C)CN([C@@H](C)CO)C(=O)c2cc(NC(=O)CCC(F)(F)F)ccc2O1`, the growth inhibition call was “inactive”.

For `CCC(=O)Nc1ccc2c(c1)OC[C@H](C)N(C(=O)CN1CCOCC1)C[C@H](C)[C@@H](OC)CN(C)C2=O`, the growth inhibition call was “inactive”.

`C[C@@H]1CN([C@H](C)CO)C(=O)c2cccc(NC(=O)Nc3ccc(C(F)(F)F)cc3)c2O[C@H]1CN(C)S(C)(=O)=O`: the growth inhibition call is “inactive”.

For `COc1ccc2c3c([nH]c2c1)[C@H](CO)N(Cc1ccncc1)C[C@]13CCN(CC1)Cc1ccc(cc1)-c1ccccn1`, the growth inhibition call was “inactive”.

With `C[C@@H]1CN([C@H](C)CO)C(=O)c2c(c3ccccc3n2C)-c2ccccc2CO[C@@H]1CN(C)C(=O)c1ccc(F)cc1`, the growth inhibition call was “inactive”.

`Cc1ccc(S(=O)(=O)Nc2ccc3c(c2)CC(=O)N([C@@H](C)CO)C[C@@H](C)[C@H](CN(C)S(=O)(=O)c2c(C)noc2C)O3)cc1`: the growth inhibition call was “inactive”.

`COc1ccc(NC(=O)N(C)C[C@@H]2Oc3ccc(NC(=O)Nc4cccc5ccccc45)cc3CC(=O)N([C@H](C)CO)C[C@@H]2C)cc1`: the growth inhibition call was “inactive”.

Turning to `C[C@@H]1CN([C@@H](C)CO)C(=O)c2c(c3ccccc3n2C)-c2ccccc2CO[C@@H]1CN(C)C(=O)c1ccc(F)cc1`, the growth inhibition call was “inactive”.

Consider `Cc1noc(C)c1NC(=O)Nc1ccc2c(c1)CC(=O)N([C@H](C)CO)C[C@H](C)[C@H](CN(C)C(=O)Nc1ccc(C(F)(F)F)cc1)O2`, for which the growth inhibition call was “inactive”.

With `Cc1noc(C)c1NC(=O)Nc1ccc2c(c1)C(=O)N([C@@H](C)CO)C[C@@H](C)[C@@H](CN(C)C(=O)Nc1ccc3c(c1)OCO3)OCCCC[C@@H](C)O2`, the growth inhibition call is “inactive”.

In the case of `COc1ccc(S(=O)(=O)N(C)C[C@H]2OCCCC[C@H](C)Oc3ccc(NC(=O)Nc4cccc5ccccc45)cc3C(=O)N([C@@H](C)CO)C[C@H]2C)cc1`, the growth inhibition call was “inactive”.

Regarding `CC(C)=Cc1ccc(C#N)c(=S)[nH]1`, the growth inhibition call is “inactive”.

With `C[C@@H]1CCCCO[C@@H](CN(C)C(=O)Nc2ccc(C(F)(F)F)cc2)[C@@H](C)CN([C@H](C)CO)C(=O)c2cc(NC(=O)Nc3ccc(F)cc3)ccc2O1`, the growth inhibition call was “inactive”.

For the molecule `Cn1c(CNc2ccccc2)cc(=O)n(C)c1=O`, the growth inhibition call was “inactive”.

As to `NNC(=O)c1ccc(CN2CCCCC2)o1`, the growth inhibition call is “inactive”.

Consider `Cc1ccc(S(=O)(=O)Nc2ccc3c(c2)CC(=O)N([C@@H](C)CO)C[C@H](C)[C@H](CN(C)S(=O)(=O)c2ccc(F)cc2)O3)cc1`, for which the growth inhibition call is “inactive”.

As to `CCCC#Cc1cnc2c(c1)C(=O)N([C@H](C)CO)C[C@@H](C)[C@@H](CN(C)S(=O)(=O)c1cccc(OC)c1)O2`, the growth inhibition call was “inactive”.

As for `C[C@H]1CCCCO[C@@H](CN(C)Cc2ccc(C(=O)O)cc2)[C@@H](C)CN([C@@H](C)CO)C(=O)c2cc(NC(=O)Nc3cccc4ccccc34)ccc2O1`, the growth inhibition call was “inactive”.

For `CCCCCCCCCCCCCCCC(=O)OC(C)C`, the growth inhibition call is “inactive”.

`C[C@H](CO)N1C[C@H](C)[C@H](CN(C)Cc2ccc(Cl)c(Cl)c2)Oc2ccc(NS(=O)(=O)c3ccc(F)cc3)cc2CC1=O`: the growth inhibition call is “inactive”.
